In US20210163595A1 (CELGENE, published 2021):

What was measured:
[1] = biological target: T1, cyno PD-1 expressed on cells (cynomolgus monkey, UniProt B0LAJ3 25-288); assay: cell-based or functional assay
[2] = biological target: T1, cyno PD-1 expressed on cells; assay: flow cytometry on CHO cells expressing cyno PD-1; unlabeled antibody, detection with anti-human IgG Fc (PE GeoMFI); x axis 'Primary Ab conc (nM)' with ticks -3 to 3, read as log10 of nM
[3] = biological target: T2, human PD-1 expressed on the cell surface (human, UniProt Q15116 fragment); assay: flow cytometry on CHO cells expressing human PD-1; unlabeled antibody, detection with anti-human IgG Fc (PE GeoMFI); x axis 'Primary Ab conc (nM)' with ticks -3 to 3, read as log10 of nM
T2 construct: also called human PD-1-CHO cells; CHO-hPD-1

[4] = biological target: T1, cyno PD-1 expressed on cells; assay: flow cytometry on CHO cells expressing cyno PD-1; unlabeled antibody, detection with anti-human IgG Fc (PE GeoMFI); no unit in the table; x axis 'Primary Ab conc (nM)' with ticks -3 to 3, read as log10 of nM
[5] = biological target: T2, human PD-1 expressed on the cell surface; assay: flow cytometry on CHO cells expressing human PD-1; unlabeled antibody, detection with anti-human IgG Fc (PE GeoMFI); no unit in the table; x axis 'Primary Ab conc (nM)' with ticks -3 to 3, read as log10 of nM
T2 sequence (Q15116 25-198 limits assumed): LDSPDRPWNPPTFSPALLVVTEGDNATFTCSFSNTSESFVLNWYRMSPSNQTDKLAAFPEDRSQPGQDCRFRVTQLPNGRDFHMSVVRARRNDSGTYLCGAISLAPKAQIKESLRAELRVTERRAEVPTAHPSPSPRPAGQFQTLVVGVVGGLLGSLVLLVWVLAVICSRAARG

T1 sequence (B0LAJ3 entry or part of it limits assumed): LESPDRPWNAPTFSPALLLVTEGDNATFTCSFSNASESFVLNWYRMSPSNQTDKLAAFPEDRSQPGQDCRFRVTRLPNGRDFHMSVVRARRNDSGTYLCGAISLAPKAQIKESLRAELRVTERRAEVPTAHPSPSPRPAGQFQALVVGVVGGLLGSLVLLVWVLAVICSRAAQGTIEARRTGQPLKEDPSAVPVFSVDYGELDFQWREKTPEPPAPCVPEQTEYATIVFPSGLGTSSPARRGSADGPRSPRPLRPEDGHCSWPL

B1: PD1AB-6-K3 (antibody, human IgG1, kappa)
heavy: EVQLVQSGAEVKKPGATVKISCKASGFNIKDTYMHWVQQAPGKGLEWMGRIDPANGDRKYDPKFQGRVTITADTSTDTAYMELSSLRSEDTAVYYCARSGPVYYYGSSYVMDYWGQGTTVTVSS[human IgG1 constant region with changes omitted here]
light: DIVMTQSPDSLAVSLGERATINCKSGQSVLYSSNQKNFLAWYQQKPGQPPKLLIYWASTRESGVPDRFSGSGSGTDFTLTISSLQAEDVAVYYCHQYLYSWTFGQGTKLEIKRTVAAPSVFIFPPSDEQLKSGTASVVCLLNNFYPREAKVQWKVDNALQSGNSQESVTEQDSKDSTYSLSSTLTLSKADYEKHKVYACEVTHQGLSSPVTKSFNRGEC
- IL-2 EC50 (nM), cyno PBMC assay, NHP1 [1]: 0.24 nM
- IL-2 EC50 (nM), cyno PBMC assay, NHP2 [1]: 2.5 nM
- IL-2 EC50 (nM), cyno PBMC assay, NHP3 [1]: 9.24 nM
- IL-2 EC50 (nM), cyno PBMC assay, NHP4 [1]: 1.22 nM

B2: PD1AB-6-4P (antibody, human IgG4 S228P, kappa)
heavy: EVQLVQSGAEVKKPGATVKISCKASGFNIKDTYMHWVQQAPGKGLEWMGRIDPANGDRKYDPKFQGRVTITADTSTDTAYMELSSLRSEDTAVYYCARSGPVYYYGSSYVMDYWGQGTTVTVSSASTKGPSVFPLAPCSRSTSESTAALGCLVKDYFPEPVTVSWNSGALTSGVHTFPAVLQSSGLYSLSSVVTVPSSSLGTKTYTCNVDHKPSNTKVDKRV[human IgG4 Fc with S228P L445P (EU numbers) omitted here]
light: DIVMTQSPDSLAVSLGERATINCKSGQSVLYSSNQKNFLAWYQQKPGQPPKLLIYWASTRESGVPDRFSGSGSGTDFTLTISSLQAEDVAVYYCHQYLYSWTFGQGTKLEIKRTVAAPSVFIFPPSDEQLKSGTASVVCLLNNFYPREAKVQWKVDNALQSGNSQESVTEQDSKDSTYSLSSTLTLSKADYEKHKVYACEVTHQGLSSPVTKSFNRGEC
notes: also called IgG4P-PD1AB-6
- IL-2 EC50 (nM), cyno PBMC assay, NHP1 [1]: < 0.1 nM
- IL-2 EC50 (nM), cyno PBMC assay, NHP2 [1]: 1.24 nM
- IL-2 EC50 (nM), cyno PBMC assay, NHP3 [1]: 16.5 nM
- IL-2 EC50 (nM), cyno PBMC assay, NHP4 [1]: 1.23 nM

B3: PD1AB-6-IgG1 (antibody)
heavy: EVQLVQSGAEVKKPGATVKISCKASGFNIKDTYMHWVQQAPGKGLEWMGRIDPANGDRKYDPKFQGRVTITADTSTDTAYMELSSLRSEDTAVYYCARSGPVYYYGSSYVMDYWGQGTTVTVSS[human IgG1 constant region omitted here]
light: DIVMTQSPDSLAVSLGERATINCKSGQSVLYSSNQKNFLAWYQQKPGQPPKLLIYWASTRESGVPDRFSGSGSGTDFTLTISSLQAEDVAVYYCHQYLYSWTFGQGTKLEIKRTVAAPSVFIFPPSDEQLKSGTASVVCLLNNFYPREAKVQWKVDNALQSGNSQESVTEQDSKDSTYSLSSTLTLSKADYEKHKVYACEVTHQGLSSPVTKSFNRGEC
notes: also called IgG1_PD1AB-6; IgG1-PD1AB-6
- IL-2 EC50 (nM), cyno PBMC assay, NHP1 [1]: 0.28 nM
- IL-2 EC50 (nM), cyno PBMC assay, NHP2 [1]: 4.9 nM
- EC50 (read off the curve) [2]: ~6 nM
- EC50 (read off the curve) [3]: ~3 nM
- LogEC50 [4]: 0.806
- LogEC50 [5]: 0.431
